In the RNAGym collection of RNA variant scans (doi:10.1101/gad.245936.114):
Variants at the background level are over-represented here.

B1: tRNA (parent)
chain: CUCUCGGUAGCCAAGUUGGUUUAAGGCGCAAGACUUUAAUUUAUCACUACGAAAUCUUGAGAUCGGGCGUUCGACUCGCCCCCGGGAGAUUUUUUCCUCGAGCAA

Variants of: B1
Assay: nonsense suppression (GFP-seq) (ratio to wild type); higher = more function; SUP4oc tRNA, yeast GFP reporter sort-seq
Summary of the method: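 Yeast carrying genome-integrated SUP4oc tRNA variants from a library with ~3% random mutations were grown in raffinose/galactose medium with 80 mg/L adenine. Each strain also carried a galactose-driven GFP ochre reporter and RFP. Cells were sorted into GFP/RFP bins, and each bin was Illumina-sequenced (phred ≥30). Nonsense suppression (GFPSEQ) is the bin median GFP/RFP, weighted by each variant's estimated cell share per bin, relative to wild-type SUP4oc; variants needed ≥100 reads and ≥30 cells.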

Variant	nonsense suppression
U22C A33G G59A	≤ 0.026
U21G C72A C82U	≤ 0.026
U22G U57C G61C G86A	≤ 0.026
U22C C27G	≤ 0.026
U21A C29G G84U	≤ 0.026
U21G U57C C79G A89C	≤ 0.026
U21G C77U C82U	≤ 0.026
U21C U22A	1.14
U22C C79A	≤ 0.026
U21C A31G G85A G88C	≤ 0.026
U21G U55C C79A	≤ 0.026
U22G C72G	≤ 0.026
U21G A33U U57C U58A A89G	≤ 0.026
U21A A24U C56U	≤ 0.026
U21A A33U C68A	≤ 0.026
U21C U70C G85A	≤ 0.026
U22G G25A A33G G78A	≤ 0.026
U22G G25U G67A C75G	≤ 0.026
U21A G69C U76C	≤ 0.026
U21C U63A	1.12
U22C A33C C34A C81A	≤ 0.026
U22C G25C	0.0473
U22G U55C G65C C80U	≤ 0.026
U22G U55C G65C C80G	≤ 0.026

Variant	nonsense suppression
U22C A24U C29U A30G	0.0731
U22G U63A G65U C68A	≤ 0.026
U21C U35C	≤ 0.026
U21C U35A	≤ 0.026
U22G U76A C83A	≤ 0.026
U22A G28A	1.14
U22A U76C	0.967
U22C G26A U57G	≤ 0.026
U21A U22A G28C U55A G69A	≤ 0.026
U21C U76A	≤ 0.026
U21A U22C A30G G65C	≤ 0.026
U22C G59A G88A	≤ 0.026
U21G C56A	≤ 0.026
U21C C34A C64U	≤ 0.026
U21G C34A	≤ 0.026
U21G G32C U58C G61A C77U	≤ 0.026
U21C C34A	≤ 0.026
U21G G25U G69C C80G	≤ 0.026
U22A C79A A87C	≤ 0.026
A23C A54G	≤ 0.026
A23C A31U U55A G78C	≤ 0.026
U22C A24G U57G U71G	≤ 0.026
U22C G65A G73A	≤ 0.026
U21A C72G C77G A89C	≤ 0.026

Variant	nonsense suppression
U21A G66U C80G	0.219
U21A U55C G61A G86C	≤ 0.026
U21G G61C	0.105
U22G A33C U70C A89C	≤ 0.026
U22C A24C C27U A31C U35G U57C G67U	≤ 0.026
U21C G69C	≤ 0.026
U21G C77G C79A C82U A87C	≤ 0.026
U21C A74G	≤ 0.026
U22G C29U	1.15
U22G C29G	≤ 0.026
U21A U55A G59C C79A	≤ 0.026
U21A U55A G61A C72G A74U	≤ 0.026
U22C G78U C81G	≤ 0.026
U22C A60C G61A	0.176
U22G A23C A33C U55A G61A	≤ 0.026
U22C C27U A31C C79U	≤ 0.026
U22G	0.989
U22C	1
U22A	1.13
U21C U35A C79U	≤ 0.026
U21G A33U U57C U58A	≤ 0.026
U22G A30C	≤ 0.026
U22G A30G	0.781
U22C A33G C81G	≤ 0.026

Variant	nonsense suppression
U21G	1.04
U21C	0.954
U22G U57A	≤ 0.026
U22G U57G	≤ 0.026
U22C G26U	≤ 0.026
U22G A24C A31C	≤ 0.026
U21G G61A C64A C81A	≤ 0.026
U21C C29A A87G	≤ 0.026
U21G C29U C82A	≤ 0.026
U21G C29U C82U	≤ 0.026
U21C A30G U57G	≤ 0.026
U22C U63C C68U	0.0629
U21C U58G C79A	≤ 0.026
U22A C27G C80G	≤ 0.026
U22A G66A G69U	≤ 0.026
U21C G26C C27U C56A C79G G85A	≤ 0.026
U21G G88U	≤ 0.026
U21G A62U G78C	≤ 0.026
A23C A24C U35A	≤ 0.026
U21C C82U	1.15
U21C U35A C64G G66C C72G	≤ 0.026
U21G G32A U76G	≤ 0.026
U21G G25C G32A C68U	≤ 0.026
U22C C77A	≤ 0.026

Variant	nonsense suppression
U22C C77U	≤ 0.026
U22G G25U G61C G66U	≤ 0.026
U21C A23U A60G	≤ 0.026
U21G A23C	≤ 0.026
U22C C34A U57G U76G G85C	≤ 0.026
U21G A33G	≤ 0.026
U22G C29U A31G	≤ 0.026
U22C U70C G73A	≤ 0.026
U22G G66A U76G	≤ 0.026
U21A C27A A33C U58C	≤ 0.026
U21G G28A A33U G78A	≤ 0.026
U22A A33U C34A U76C	≤ 0.026
U21G C27G U35C U55A G61A A87U	≤ 0.026
U21C G73U	≤ 0.026
U22G A23C U71C	≤ 0.026
U21A G61U	0.791
U22C G25C A31G C64G G67A C77A	≤ 0.026
U21G G73C A89C	≤ 0.026
U22C A30C G32U C82G	≤ 0.026
U21G U35G G61C	≤ 0.026
U22G G78U G85A	0.788
U22A U63C C77G	≤ 0.026
U22C G65C	≤ 0.026
U21G G78U C82A	≤ 0.026

Variant	nonsense suppression
U22A C34A	≤ 0.026
U21G G32A	≤ 0.026
U21G G32C	≤ 0.026
U21G U57G U70G	≤ 0.026
U22G G25U U55C	≤ 0.026
U21C C56G	≤ 0.026
U21C C56U	0.174
U22A C79G G88U	≤ 0.026
U22C U35G U57G G73U G88U	≤ 0.026
U21A A54U C64G	≤ 0.026
U22C U58A G61U	≤ 0.026
U22G U57C A60C C81U G85U	≤ 0.026
U21G A60C A74U	≤ 0.026
U22C G69C	≤ 0.026
U21C A31G A74G G85A G88C	≤ 0.026
U22C G67A A89C	≤ 0.026
U22C G61U U63C	0.17
A23C A31U G66U	≤ 0.026
U21C C64A	≤ 0.026
U21G G32A U63C G65U	≤ 0.026
U22A A30U	0.177
U21A G26C G69C C80G	≤ 0.026
U21A C80G G84C	≤ 0.026
U22G G65C	≤ 0.026

Variant	nonsense suppression
U22A C27G C29G U76G	≤ 0.026
U21G A60G U70A C77G	≤ 0.026
U21A C27U C34U C83U	≤ 0.026
U22C U35C U70A A87C A89G	≤ 0.026
U22A C34U G84C	≤ 0.026
U21G A60G C77U C79U G85A	≤ 0.026
U21A U70A	≤ 0.026
U22C G25U U57G G85C	≤ 0.026
U22G C27G	≤ 0.026
U21A A60G	0.302
U22A A24G C27G G61C G86A	≤ 0.026
U21A A54G	≤ 0.026
U22C U57A G73U	≤ 0.026
U22A G61C	0.203
U22G A60C G86C	≤ 0.026
U22G G67C	≤ 0.026
U21A U55A G59C U63C	≤ 0.026
U21C C72U	≤ 0.026
U21G C27U U70A	≤ 0.026
U21G A62U G65A G85C	≤ 0.026
U22C G28U A31U G86U	≤ 0.026
U21A G25C G26U G61U G73C	≤ 0.026
A23C A33C U55A G61C C83U	≤ 0.026
